The list shows a part of the results. Repeats are few or missing, and single values can be far off.
The compounds below were run on WM451Lu (assay: cell count relative to DMSO control; melanoma cells; higher = more viable cells). Settings: library dose: low library concentration; 72 h.
Work on CO[C@@H]1[C@H](N(C)C(=O)c2ccccc2)C[C@H]2O[C@]1(C)n1c3ccccc3c3c4c(c5c6ccccc6n2c5c31)C(=O)NC4 [Midostaurin] + O=C(O)c1ccc(-c2c[nH]c3ncc(-c4ccccc4)cc23)cc1C1CCCC1 [GSK650394] (first compound 0.08 µM, partner dose 0.16 µM) yielded a cell count of 87.6%. Work on C=CCn1c(=O)c2cnc(Nc3ccc(N4CCN(C)CC4)cc3)nc2n1-c1cccc(C(C)(C)O)n1 + Cc1ccc(NC(=O)c2cccc(N(C)C)c2)cc1NC(=O)c1ccc(O)cc1 [ZM336372] (first compound 0.02 µM, partner dose 2 µM) yielded a cell count of 127%. With CO[C@@H]1[C@H](N(C)C(=O)c2ccccc2)C[C@H]2O[C@]1(C)n1c3ccccc3c3c4c(c5c6ccccc6n2c5c31)C(=O)NC4 [Midostaurin] + CN(C)S(=O)(=O)c1ccc2c(c1)/C(=C/c1cc3c([nH]1)CCCC3)C(=O)N2 [SU6656] (first compound 0.08 µM, partner dose 0.4 µM) the cell count was 110%. In the case of NC(=O)Nc1cc(-c2cccc(F)c2)sc1C(=O)N[C@H]1CCCNC1 + Oc1cc(-c2nc(-c3ccccc3)[nH]c2-c2ccncc2)ccc1Cl [L779450] (first compound 0.02 µM, partner dose 0.2 µM), the cell count is reported as 137%.

From the supplement of paper PMC4604168 (melanoma cell lines)
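Further: cell number obtained by counting DAPI-stained nuclei in high-throughput microscope images with image analysis software, screen run in 1,536-well plates.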
